The list shows a part of the results.
These sequences were tested on PfSIP2 AP2 domain 1 (GST-tagged) (assay: gcPBM binding intensity (ln(normalized median fluorescence intensity)); higher = stronger DNA binding).
Procedure, shortened: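 DNA-binding domains from P. falciparum, fused to GST and produced in E. coli, were put on an Agilent 4 × 180k double-stranded probe array for 1 h in 1× PBS holding 1% milk, 0.2 mg/ml BSA, 0.5% salmon testes DNA and 0.03% Triton X-100. Probes were primer-extended, 36 bp long and drawn from intergenic genomic regions, with negative controls included. After Alexa488 anti-GST antibody detection and a 488 nm scan, binding intensity was set as the highest Masliner-normalised natural-log median intensity across replicate spots of either probe orientation.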

Row | Sequence | gcPBM binding intensity (ln)
1 | AAAAGCTATAAAAATCGGTAATTTATAACAGGAATT [CACACA_negctrl_site469] | 6.79
2 | ATTATGTACTATTATACACACGTTTAATTGTAAATT [CACACA_site4278] | 7.12
3 | ATAATAATAAAGTGAACACACACATATAATATATAT [CACACA_site9378] | 7.19
4 | ATTATACACGCGCGCACACACAACAAAAAAAAAAAA [CACACA_site7630] | 7.59
5 | TAAATAAACAAATTAACACACAGAATTTTTTTTTTC [CACACA_site1674] | 6.64
6 | ATATTAAGAATGTATACATGCATATATATATAGTAC [TGCATGCA_site219] | 7.25
7 | ATTTTAATAAACACTTACATGTTTTCCAAATTGTAT [CACACA_negctrl_site1807] | 6.93
8 | TTCGTTAAAAATAAATGTACATAAATAAACCTTATT [XGTACX_site621] | 7.33
9 | TATTAATAAATATGTTTACACACGAAAATACATTTT [CACACA_site1012] | 6.82
10 | AAAGATTTAGAAAATGAACACACGAGCACCCACCGA [CACACA_site1017] | 9.57
11 | GAAAGAGAGATATATACACACATATTTATATTTTTA [CACACA_site7057] | 6.76
12 | AAAAGTCTCTTTTTAGTGCACATTTTATTTAAATAT | 10.2
13 | CAGATAAGGTGAAGCTGTACAAAAATGTTTTATAAC [XGTACX_site6783] | 7.18
14 | TCTAATTATCACATTGCACACACATTTCCTTTTACA [CACACA_site9140] | 7.3
15 | TAATTAATTTATGTAACACACATTGTTGATTCAATA [CACACA_site1098] | 6.93
16 | TTATACTGTATAGTCGCACACAAAAATATAAAATAT [CACACA_site3869] | 7.11
17 | AATACACCCAGACACACACACAAAAAAAAAAAAAAA [CACACA_site513] | 7.29
18 | ATATATATATTAAATACACACATTTTTGATTAGGTT [CACACA_site3119] | 8.9
19 | AAAAGAGAAATGGGCACACACACACCGATTATATAT [CACACA_site4942] | 7.13
20 | TTTGAATCCTTATATACACACATTATGTAATATTAT [CACACA_site561] | 7.1
21 | AATATAAAAATGTTTACACACACACCCAAATATATT [CACACA_site2511] | 7.13
22 | AGAATTACTTAAAAAAGTACATAAAATTATTTAAAA [XGTACX_site2205] | 6.69

Row | Sequence | gcPBM binding intensity (ln)
23 | ATTACATTTTTAATGCGTACTAAAAATGTATATAAG [XGTACX_site6384] | 7.11
24 | TTATTATCTCTTGTCATTATTATATACTAAGAAGTA [CACACA_negctrl_site410] | 6.88
25 | AATATGAAATATATTACACACATTTATATGTTGAAA [CACACA_site1427] | 6.87
26 | TTTATTCCAGTATTCACACACGAATAACCACATAAC [CACACA_site5104] | 7.12
27 | ATAATTCTTTATTATAGTACACAAACTTTCAAAACA [XGTACX_site3597] | 7.06
28 | CTATACATATTATATAGTACTTTATTATTATGACTA [XGTACX_site1382] | 6.74
29 | TATATAAGAGGAAAAAGTACAGAAAAACAAAGAGAA [XGTACX_site2926] | 7.54
30 | TGTATTTATAGCAATACACACATAACAATAAATATA [CACACA_site3328] | 6.98
31 | ACAAAACATATATTCTGTACATATATAATGGTGACT [XGTACX_site6796] | 7.1
32 | TTTATATCTTATTATAGGAAAATGAATATTTTCTCT [TGCATGCA_negctrl_site478] | 6.64
33 | AAGAAAATATAAATATGTACTTAATAATTTATTTAT [XGTACX_site8100] | 6.78
34 | AAAAAAGAGGGATACACACAAACATATATATATATA [CACACA_site2243] | 9.24
35 | AAAATAAAAAGAAATTGTACGTATAATAATATATTT [XGTACX_site7593] | 6.97
36 | TTTATTTTAAAATTTACACACAAAAGGATTTATAGA [CACACA_site2338] | 7.01
37 | TATATTAATTAACAGTGTACAAAAAAAAATAAAAAA [XGTACX_site3702] | 7
38 | TATTAAAATAACATACGTACATAAGTATATAAAAAA [XGTACX_site1769] | 6.99
39 | AGGATACACGGACACACACACATATATATATATATA [CACACA_site4654] | 9.57
40 | TGTATAAATAAATGCGTACACACTAATAAAAAAAAA [CACACA_site858] | 7.33
41 | TTATGTAAATAATTTTGTACTTAAATTATTATATAA [XGTACX_site1491] | 6.72
42 | CAACTTTTTGAAAATTGTACATGACATATATATATA [XGTACX_site260] | 9.04
43 | AAAAAAAATATGATGAGTACACAATAATACATGCAA [XGTACX_site6999] | 7.17
44 | GTGGTTATATATTAAGTGCATATTATAATTTTAAAC | 8.63

Row | Sequence | gcPBM binding intensity (ln)
45 | AATATCTAAAATGTGTGTACATAATATTTTTAATAT [XGTACX_site3831] | 7.1
46 | ATAGATAAAAAATTATTTATTTAGAATTTTTATGTA [CACACA_negctrl_site400] | 6.77
47 | TGTCTTTATATATATTTATTTTTTAGTATTACATAA [CACACA_negctrl_site21] | 7.33
48 | ATGGAATATTTCATGATTTTTTTAATTTTTTTATTG [XGTACX_negctrl_site55] | 6.6
49 | ATTTTCATATTTTTATGTACATATTATAAGAATATA [XGTACX_site3691] | 6.97
50 | TATCTTTTTTTTAATACACACAAATTTATGAAAGTA [CACACA_site7879] | 6.99
51 | CACGCACGCACATACACACACATACACATATAAATA [CACACA_site6907] | 7.69
52 | ATGTTGTTCATAAATATATTATTTTTAAATGTACAA [GTGCAC_negctrl_site507] | 6.94
53 | GTATTTAGATGATTAACACACATATGTGTATTAATA [CACACA_site6733] | 7.11
54 | ATATATATTATTGAATGTACATAATTATTTAATAGT [XGTACX_site4971] | 7.3
55 | ATATATTCACGTTAATGTACACATAATAAATTATAT [XGTACX_site5481] | 7.3
56 | AATTATATTGGTTGTAGTACTAAAAGTAAGTTAATG [XGTACX_site33] | 7.26
57 | TATTCACTGATATGTTGTACATAAAAAAAATTAAAT [XGTACX_site6128] | 7.49
58 | TGAAAAAAGAAAAATACACACATATAATATAATATA [CACACA_site2255] | 6.74
59 | TTTTTTATATTGATATTTATTAAATATGAAATGTTA [GTGCAC_negctrl_site405] | 7.03
60 | AATAAAATATAAGGGGGTACGGAGAAAGGATACTAT [XGTACX_site7733] | 7.2
61 | TTATATAAGATATTTCGTACACATTCAAAAATTATG [XGTACX_site7375] | 6.96
62 | AAAAAAAAAAAAAAAAGTACATATATTATATATATA [XGTACX_site2983] | 8.21
63 | CATACACCCCAACACACACACACACCCATATATAAT [CACACA_site8097] | 7.33
64 | TTATATTTTTACAAGAGTACATATATATATATATAT [XGTACX_site5383] | 9.27
65 | GTGCAATATTTATTTTGTACATATTTATCAATAAAC [XGTACX_site8297] | 8.9
66 | ACATCGATTTATATTCTGCACTGAAGAAACTACAAC [GTGCAC_site9967] | 7.76

Row | Sequence | gcPBM binding intensity (ln)
67 | ATTAAATATATTAAATGTACATAATATATATATATA [XGTACX_site5032] | 8.57
68 | TCAAACCAGTTGATGTGTACACATATAGTAATAATT [XGTACX_site6014] | 7.22
69 | TTTATTTGATGAACATGTACAAAAAAACAAAGAACA [XGTACX_site823] | 7.36
70 | TGATATTTTATTATTAAAATATATACATATATATAT [CACACA_negctrl_site1456] | 8.91
71 | ATAAAAATAAAATGGACACACATATATACCTATTTG [CACACA_site5761] | 6.92
72 | AAGAAAAAAAAAAAAAAAGATACTTTTTTAAAACTA [TGCATGCA_negctrl_site13] | 6.6
73 | TTGCACAGATTAATCAAAAATTTTAAACCAAATATA [XGTACX_negctrl_site38] | 7.08
74 | TATTTACACAAAATAAAATATATTATATATATATAT [TGCATGCA_negctrl_site381] | 8.65
75 | AGAATAGAATAAAAAACACACATTTACAACATTATT [CACACA_site3894] | 6.82
76 | TATTTATACATAGGTGGTACTACTTTAAACAAAAAA [XGTACX_site5062] | 7.23
77 | TATATGGAGAGATATGCACACTGTATGAATGCCCCC [CACACA_site8853] | 9.32
78 | AAATAAATAATATTCACACATAAAAAAAATGGAGTT [CACACA_site4525] | 6.77
79 | GTGCTTATTTATACATGTACAAATGATAAGTTTGTA [XGTACX_site169] | 7.76
80 | GAAATAAATATATATGCATGTACTTTAATATTATTA [TGCATGCA_site904] | 7.12
81 | TAAATATATTCATAAAGTACAAAGCAAAATTGTCTA [XGTACX_site7274] | 6.83
82 | TTTTTTCTTTTATGTGAAATGTAATATTGTTATATA [GTGCAC_negctrl_site715] | 6.97
83 | AGGTGATTGATATATACACACATACCTATATTTATA [CACACA_site7348] | 6.88
84 | TGTTTATTTAATAATATTTTTTTTTTTATTATATTA [XGTACX_negctrl_site56] | 6.65
85 | TTATTAAAATATTCTAGTACATATAAAAGGAGAACA [XGTACX_site4374] | 7.55
86 | ATATATTATTTTAAATGTACTCATAATAGAAATGTC [XGTACX_site40] | 7.32
87 | ATATAAAGAAAAGGAACACACAAATATATATATATA [CACACA_site463] | 9.29
88 | CACACAGGTAAAAAGGTGCAGTTGAAATATTCCTCA [GTGCAC_site9730] | 11.1
